Laboratory results: paper PMC7444511, “Human granulocyte-colony stimulating factor (G-CSF)/stem cell factor (SCF) fusion proteins: design, characterization and activity” (PeerJ, 2020)

Tests used:
SCF monomer = SCF monomer (human, UniProt P21583 part only); assay: SEC; calibrated SE-HPLC, TSK-gel G3000 SWXL, 0.1 M Na2HPO4, 0.1 M Na2SO4 pH 7.2, 0.6 mL/min, 22 °C; 10 µg of each protein loaded; details: both partners purified
[1] = target: T1, c-kit (extracellular domain fused to the Fc region of human IgG1) (UniProt P10721 part only); assay: total internal reflection ellipsometry (TIRE); receptor-Fc held by its Fc region on protein G immobilised covalently on an 11-MUA monolayer on gold; 10 µg/mL of each protein in PBS pH 7.4; standard fully reversible Langmuir kinetics model; details: both partners purified
T1 construct: c-kit, the SCF receptor; extracellular domain; Chimeric protein held on protein G by its Fc region; also called SCF receptor; source: bought: Abcam
T1 sequence (P10721 26-524): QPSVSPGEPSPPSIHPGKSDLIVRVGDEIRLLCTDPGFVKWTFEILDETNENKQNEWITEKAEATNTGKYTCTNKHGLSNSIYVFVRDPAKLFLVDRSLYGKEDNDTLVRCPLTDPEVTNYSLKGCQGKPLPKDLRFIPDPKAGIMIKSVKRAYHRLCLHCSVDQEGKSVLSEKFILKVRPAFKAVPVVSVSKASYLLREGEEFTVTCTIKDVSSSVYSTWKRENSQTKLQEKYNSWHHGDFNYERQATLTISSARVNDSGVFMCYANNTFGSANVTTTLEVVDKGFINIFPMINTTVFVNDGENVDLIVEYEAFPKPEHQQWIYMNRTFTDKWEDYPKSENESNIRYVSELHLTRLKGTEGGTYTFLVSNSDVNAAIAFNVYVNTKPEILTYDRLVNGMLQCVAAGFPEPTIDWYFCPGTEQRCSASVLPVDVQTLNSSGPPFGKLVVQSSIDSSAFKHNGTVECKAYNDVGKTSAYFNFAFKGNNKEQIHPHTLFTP

Chain of SCF monomer (P21583 26-214): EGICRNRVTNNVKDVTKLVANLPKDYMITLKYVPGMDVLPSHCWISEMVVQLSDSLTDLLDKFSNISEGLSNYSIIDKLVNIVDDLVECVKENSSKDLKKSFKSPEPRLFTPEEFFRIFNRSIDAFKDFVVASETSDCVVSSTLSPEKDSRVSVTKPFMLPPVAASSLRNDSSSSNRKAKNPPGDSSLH

stoichiometry N (SCF monomer): 2
Ka [1]: 950000 M⁻¹
Kd [1]: 1040 nM
koff [1]: 0.0143 s⁻¹
kon [1]: 13700 M⁻¹ s⁻¹
B1: SCF monomer (ligand)
chain: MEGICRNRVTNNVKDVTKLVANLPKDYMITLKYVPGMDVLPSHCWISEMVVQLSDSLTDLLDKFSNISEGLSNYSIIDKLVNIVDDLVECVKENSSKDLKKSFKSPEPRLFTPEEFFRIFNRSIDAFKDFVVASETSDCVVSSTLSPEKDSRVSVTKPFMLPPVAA
modifications: E. coli-derived, non-glycosylated; non-covalent homodimer by SE-HPLC. Limits not printed: the printed MW 18,656.49 matches Met + mature […] (precursor […]), consistent with the fusion ma
